Reference: the supplement of paper PMC10126150
Sequences with one replicate were seen in a single cluster, so their values are uncertain.
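Note: ATP exposure 15 min at 22 °C before imaging.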

The sequences below were run on ATP (assay: switch fluorescence ratio, 500 uM ATP over buffer (Cy3 cluster intensity, sum of 5 cycles each) (fold (ratio)); higher = stronger signal-on switching upon ATP binding; sequences stand for … in TCGTCGGCAGCGTCAGATGTGTATAAGAGACAGTTTTTTTTTTTTTTTTTTTTTTTTT…TC). Conditions: aptamer strand: ATP DNA aptamer (quencher-CACCTGGGGGAGTATTGCGGAGGAAGG + anchor), 100 nM annealed; ATP concentration: 500 uM; one replicate.
Summary of the method: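 The fluorescence ratio divides summed target-cycle Cy3 intensity by summed buffer-cycle Cy3 intensity for each cluster and is averaged per switch-domain sequence. Cy3-labelled switching-strand clusters on a modified Illumina MiSeq flow-cell were annealed to 100 nM quencher-labelled ATP aptamer, then imaged in selection buffer and again after 15 min with 500 uM ATP at 22 °C. Five such cycles were run, with NaOH stripping and re-annealing between them, and clusters outside 100-1000 RFU were excluded.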
Sequence TTAGTTGGT has a switch fluorescence ratio of 1.02.
TTATAAAA gave a switch fluorescence ratio of 0.945.
For TTATAAAACA, the switch fluorescence ratio was 1.04.
TTATAACTGC gave a switch fluorescence ratio of 0.978.
TTATACGCCG showed a switch fluorescence ratio of 1.01.
Sequence TTATAGACGG has a switch fluorescence ratio of 0.993.
TTATAGAGAT showed a switch fluorescence ratio of 0.99.
With TTATAGAGCT the switch fluorescence ratio was 0.999.
TTATAGGCCC showed a switch fluorescence ratio of 0.995.
With TTATATGCCT the switch fluorescence ratio was 1.06.
Sequence TTATATTCAG has a switch fluorescence ratio of 0.974.
TTATATTTCA showed a switch fluorescence ratio of 1.01.
TTATCAACGT was tested, and the switch fluorescence ratio was 1.01.
TTATCAAGAC showed a switch fluorescence ratio of 1.45.
With TTATCAGGAC the switch fluorescence ratio was 1.07.
TTATCATGT was tested, and the switch fluorescence ratio was 1.02.
In the case of TTATCCCGAC, the switch fluorescence ratio is reported as 1.13.
For TTATCTAGGC, the switch fluorescence ratio was 0.965.
TTATCTCAGA showed a switch fluorescence ratio of 1.03.
Work on TTATCTGTGA yielded a switch fluorescence ratio of 0.959.
Work on TTATGAAATC yielded a switch fluorescence ratio of 1.04.
For TTATGACATG, the switch fluorescence ratio was 1.02.
For TTATGACGT, the switch fluorescence ratio was 1.02.
Sequence TTATGCAACT has a switch fluorescence ratio of 1.18.
With TTATGCGAGT the switch fluorescence ratio was 0.994.
Work on TTATGGCGCG yielded a switch fluorescence ratio of 0.954.
For TTATGGCTGT, the switch fluorescence ratio was 0.977.
For TTATGGGACC, the switch fluorescence ratio was 1.04.
In the case of TTATGGGTGT, the switch fluorescence ratio is reported as 1.09.
TTATGTAATA gave a switch fluorescence ratio of 1.12.
Sequence TTATGTATTA has a switch fluorescence ratio of 0.976.
TTATGTTATT was tested, and the switch fluorescence ratio was 1.02.
Sequence TTATTAATGC has a switch fluorescence ratio of 1.06.
Sequence TTATTAGCGA has a switch fluorescence ratio of 1.18.
TTATTATT was tested, and the switch fluorescence ratio was 1.01.
For TTATTCAGT, the switch fluorescence ratio was 1.01.
With TTATTCAGTG the switch fluorescence ratio was 0.976.
TTATTCGTTA showed a switch fluorescence ratio of 1.03.
TTATTCTTAC showed a switch fluorescence ratio of 1.23.
In the case of TTATTCTTG, the switch fluorescence ratio is reported as 1.
Work on TTATTGACCA yielded a switch fluorescence ratio of 1.04.
TTATTGGCCC showed a switch fluorescence ratio of 1.05.
In the case of TTATTTTGGA, the switch fluorescence ratio is reported as 0.966.
TTCAAAATAT gave a switch fluorescence ratio of 0.959.
With TTCAAAGTC the switch fluorescence ratio was 0.97.
In the case of TTCAAATACT, the switch fluorescence ratio is reported as 1.11.
In the case of TTCAAATATC, the switch fluorescence ratio is reported as 1.04.
With TTCAAATTAT the switch fluorescence ratio was 0.992.
In the case of TTCAATTCGC, the switch fluorescence ratio is reported as 1.11.
Sequence TTCAATTGAC has a switch fluorescence ratio of 1.
With TTCAATTTAC the switch fluorescence ratio was 1.06.
TTCACAACAA showed a switch fluorescence ratio of 1.06.
Sequence TTCACAGAAC has a switch fluorescence ratio of 1.08.
In the case of TTCACCATTT, the switch fluorescence ratio is reported as 0.995.
In the case of TTCACGACTC, the switch fluorescence ratio is reported as 1.05.
Sequence TTCACGT has a switch fluorescence ratio of 1.05.
In the case of TTCACTTATT, the switch fluorescence ratio is reported as 1.03.
With TTCACTTCA the switch fluorescence ratio was 0.991.
TTCACTTTTA gave a switch fluorescence ratio of 1.01.
Sequence TTCAGAAAAA has a switch fluorescence ratio of 0.927.
TTCAGAATCG was tested, and the switch fluorescence ratio was 1.04.
TTCAGAGTTA was tested, and the switch fluorescence ratio was 0.959.
In the case of TTCAGATTTG, the switch fluorescence ratio is reported as 1.04.
With TTCAGCTCGA the switch fluorescence ratio was 1.11.
In the case of TTCAGGCTGG, the switch fluorescence ratio is reported as 0.983.
Work on TTCAGGGAAT yielded a switch fluorescence ratio of 0.976.
TTCAGGTTAC gave a switch fluorescence ratio of 1.
With TTCATAGGAG the switch fluorescence ratio was 1.04.
With TTCATAGTCT the switch fluorescence ratio was 1.03.
Work on TTCATATCAG yielded a switch fluorescence ratio of 0.964.
TTCATATGAT was tested, and the switch fluorescence ratio was 0.944.
TTCATCAGGT was tested, and the switch fluorescence ratio was 1.04.
For TTCATCCTTC, the switch fluorescence ratio was 1.1.
For TTCATCGGCG, the switch fluorescence ratio was 1.
TTCATGAGGC was tested, and the switch fluorescence ratio was 1.05.
Work on TTCATGCACT yielded a switch fluorescence ratio of 1.13.
Sequence TTCATGGCAC has a switch fluorescence ratio of 1.06.
Sequence TTCATGGCAG has a switch fluorescence ratio of 1.04.
Work on TTCATGGCGT yielded a switch fluorescence ratio of 1.03.
Sequence TTCATGGTCA has a switch fluorescence ratio of 1.02.
TTCATGGTCG gave a switch fluorescence ratio of 1.
TTCATGTCGA was tested, and the switch fluorescence ratio was 1.01.
For TTCATTATG, the switch fluorescence ratio was 1.06.
Sequence TTCATTCGA has a switch fluorescence ratio of 1.02.
In the case of TTCATTTAAA, the switch fluorescence ratio is reported as 0.979.
With TTCATTTCAG the switch fluorescence ratio was 1.03.
TTCCAAGCGC gave a switch fluorescence ratio of 1.02.
In the case of TTCCAGGGCG, the switch fluorescence ratio is reported as 1.01.
Work on TTCCATTTAC yielded a switch fluorescence ratio of 1.15.
Sequence TTCCCAAGGG has a switch fluorescence ratio of 1.6.
Sequence TTCCCCCATG has a switch fluorescence ratio of 3.29.
Sequence TTCCCGGGTT has a switch fluorescence ratio of 1.09.
TTCCCGTCGC was tested, and the switch fluorescence ratio was 1.08.
Work on TTCCGACCCT yielded a switch fluorescence ratio of 1.16.
TTCCGAGAAT gave a switch fluorescence ratio of 1.17.
For TTCCGGGAGT, the switch fluorescence ratio was 0.985.
For TTCCGGGGAG, the switch fluorescence ratio was 0.989.
TTCCGGGGCT gave a switch fluorescence ratio of 0.97.
Work on TTCCGGTCTG yielded a switch fluorescence ratio of 1.01.
TTCCGTGTGA was tested, and the switch fluorescence ratio was 1.01.
Work on TTCCGTTTAG yielded a switch fluorescence ratio of 2.28.
In the case of TTCCTGCGG, the switch fluorescence ratio is reported as 1.1.
In the case of TTCCTGGCTA, the switch fluorescence ratio is reported as 1.16.
TTCCTTCCGT gave a switch fluorescence ratio of 2.23.
In the case of TTCGAACTTC, the switch fluorescence ratio is reported as 1.
TTCGAATGTT was tested, and the switch fluorescence ratio was 1.
TTCGACCACG showed a switch fluorescence ratio of 0.984.
Work on TTCGACTGAA yielded a switch fluorescence ratio of 1.03.
TTCGAGCAGT showed a switch fluorescence ratio of 1.41.
Work on TTCGAGGTGT yielded a switch fluorescence ratio of 1.03.
With TTCGAGTTCT the switch fluorescence ratio was 0.96.
In the case of TTCGATAGAC, the switch fluorescence ratio is reported as 1.08.
With TTCGATCGAG the switch fluorescence ratio was 0.987.
TTCGATGAAA was tested, and the switch fluorescence ratio was 1.02.
Work on TTCGCACCTA yielded a switch fluorescence ratio of 1.18.
TTCGCAGATT gave a switch fluorescence ratio of 0.996.
Sequence TTCGCCGGAC has a switch fluorescence ratio of 1.04.
In the case of TTCGCCTTTA, the switch fluorescence ratio is reported as 0.99.
In the case of TTCGCGATGC, the switch fluorescence ratio is reported as 3.24.
In the case of TTCGCGTTA, the switch fluorescence ratio is reported as 1.13.
TTCGCTCAA was tested, and the switch fluorescence ratio was 0.995.
TTCGCTGGAT was tested, and the switch fluorescence ratio was 1.02.
TTCGCTTGTT showed a switch fluorescence ratio of 1.01.
Work on TTCGGATTGC yielded a switch fluorescence ratio of 0.992.
TTCGGCAAAA gave a switch fluorescence ratio of 1.24.
In the case of TTCGGCACCG, the switch fluorescence ratio is reported as 0.976.
TTCGGCTTCG was tested, and the switch fluorescence ratio was 1.02.
TTCGGGCCCT was tested, and the switch fluorescence ratio was 1.01.
In the case of TTCGGGCCTT, the switch fluorescence ratio is reported as 1.02.
With TTCGGGTTCA the switch fluorescence ratio was 1.02.
Sequence TTCGGTAGTA has a switch fluorescence ratio of 0.985.
In the case of TTCGGTCGAA, the switch fluorescence ratio is reported as 0.952.
Sequence TTCGGTGAGC has a switch fluorescence ratio of 1.01.
With TTCGGTGTAA the switch fluorescence ratio was 0.997.
For TTCGGTTATC, the switch fluorescence ratio was 1.02.
With TTCGGTTCGC the switch fluorescence ratio was 1.
Work on TTCGTCGAAC yielded a switch fluorescence ratio of 1.21.
In the case of TTCGTCGGTG, the switch fluorescence ratio is reported as 0.984.
TTCGTCGTCA was tested, and the switch fluorescence ratio was 0.985.
TTCGTCTTCT gave a switch fluorescence ratio of 0.962.
With TTCGTGATGG the switch fluorescence ratio was 1.02.
In the case of TTCGTGGATT, the switch fluorescence ratio is reported as 1.03.
For TTCGTGTTCC, the switch fluorescence ratio was 1.04.
Sequence TTCTACCCAC has a switch fluorescence ratio of 1.57.
Work on TTCTACGGCG yielded a switch fluorescence ratio of 0.994.
TTCTACGTTC showed a switch fluorescence ratio of 1.08.
TTCTACTCAT was tested, and the switch fluorescence ratio was 1.02.
TTCTAGAAG was tested, and the switch fluorescence ratio was 0.948.
TTCTAGAAGA was tested, and the switch fluorescence ratio was 0.973.
Sequence TTCTAGAGGG has a switch fluorescence ratio of 0.993.
TTCTATAAAC showed a switch fluorescence ratio of 1.04.
In the case of TTCTATAGGA, the switch fluorescence ratio is reported as 1.02.
With TTCTCCGTGG the switch fluorescence ratio was 0.986.
